Measured values from patent US11178870B2 (priority 2017, dated 2021).

Assays:
Phytophthora infestans = assay type: in vivo; settings: Late blight on tomato
Magnaporthe grisea = assay type: in vivo; settings: Blast on rice

| Compound | Test F control value (Phytophthora infestans) | Test A control value (Magnaporthe grisea) |
| --- | --- | --- |
| CCn1c(-c2c(F)cc(F)cc2F)c(-n2cnc(Cl)c2Cl)cc(Br)c1=O [Compound 139] | L (L shows the control value of 50% or less) | H (H shows the control value more than 50%) |
| CCn1c(-c2c(F)cc(F)cc2F)c(-n2cc(Cl)c(C)n2)ccc1=O [Compound 141] | L (L shows the control value of 50% or less) | H (H shows the control value more than 50%) |
| CCn1c(-c2c(F)cc(F)cc2F)c(-n2cc(Cl)c(C)n2)cc(Cl)c1=O [Compound 142] | L (L shows the control value of 50% or less) | H (H shows the control value more than 50%) |
| CCn1c(-c2c(F)cc(OC)cc2F)c(-n2cc(Cl)c(C)n2)cc(Cl)c1=O [Compound 143] | L (L shows the control value of 50% or less) | L (L shows the control value of 50% or less) |
| CCn1c(-c2c(F)cc(F)cc2F)c(-n2cc(Cl)c(C)n2)cc(Br)c1=O [Compound 144] | L (L shows the control value of 50% or less) | H (H shows the control value more than 50%) |
| CCn1c(-c2ccc(F)cc2F)c(-n2cc(Cl)cn2)ccc1=O [Compound 145] | L (L shows the control value of 50% or less) | H (H shows the control value more than 50%) |
| CCn1c(-c2c(F)cc(OC)cc2F)c(-n2cc(Cl)c(C)n2)cc(Br)c1=O [Compound 146] | L (L shows the control value of 50% or less) | H (H shows the control value more than 50%) |
| CCn1c(-c2c(F)cc(F)cc2F)c(-n2cc(Br)c(C)n2)cc(Br)c1=O [Compound 147] | L (L shows the control value of 50% or less) | H (H shows the control value more than 50%) |
| CCn1c(-c2ccc(F)cc2F)c(-n2cc(Cl)cn2)cc(Cl)c1=O [Compound 148] | L (L shows the control value of 50% or less) | H (H shows the control value more than 50%) |
| CCn1c(-c2ccc(OC)cc2F)c(-n2cc(Cl)cn2)cc(Cl)c1=O [Compound 149] | L (L shows the control value of 50% or less) | H (H shows the control value more than 50%) |
| CCn1c(-c2ccc(F)cc2F)c(-n2cc(Cl)cn2)cc(Br)c1=O [Compound 150] | L (L shows the control value of 50% or less) | H (H shows the control value more than 50%) |
| CCn1c(-c2c(F)cc(OC)cc2F)c(-n2cc(Br)c(C)n2)cc(Br)c1=O [Compound 151] | L (L shows the control value of 50% or less) | H (H shows the control value more than 50%) |
| CCn1c(-c2ccc(OC)cc2F)c(-n2cc(Cl)cn2)cc(Br)c1=O [Compound 152] | L (L shows the control value of 50% or less) | H (H shows the control value more than 50%) |
| CCn1c(-c2c(F)cccc2F)c(-n2ncc(C)c2Cl)ccc1=O [Compound 153] | L (L shows the control value of 50% or less) | H (H shows the control value more than 50%) |
| CCn1c(-c2c(F)cc(F)cc2F)c(-n2cc(C(F)(F)F)cn2)cc(C(F)(F)F)c1=O [Compound 154] | L (L shows the control value of 50% or less) | H (H shows the control value more than 50%) |
| CCn1c(-c2c(F)cc(F)cc2F)c(-n2cc(C(F)(F)F)cn2)cc(Cl)c1=O [Compound 155] | L (L shows the control value of 50% or less) | L (L shows the control value of 50% or less) |

| Compound | Test F control value (Phytophthora infestans) | Test A control value (Magnaporthe grisea) |
| --- | --- | --- |
| CCn1c(-c2ccc(F)cc2Cl)c(-n2cc(Cl)cn2)ccc1=O [Compound 156] | L (L shows the control value of 50% or less) | H (H shows the control value more than 50%) |
| CCn1c(-c2ccc(F)cc2Cl)c(-n2cc(Cl)cn2)cc(Cl)c1=O [Compound 157] | L (L shows the control value of 50% or less) | H (H shows the control value more than 50%) |
| CCn1c(-c2ccc(F)cc2Cl)c(-n2cc(Cl)cn2)cc(Br)c1=O [Compound 158] | L (L shows the control value of 50% or less) | H (H shows the control value more than 50%) |
| CCn1c(-c2ccc(OC)cc2Cl)c(-n2cc(Cl)cn2)cc(Cl)c1=O [Compound 159] | L (L shows the control value of 50% or less) | H (H shows the control value more than 50%) |
| CCn1c(-c2c(F)cc(F)cc2F)c(-n2cc(I)cn2)cc(Cl)c1=O [Compound 160] | L (L shows the control value of 50% or less) | L (L shows the control value of 50% or less) |
| CCn1c(-c2c(F)cc(F)cc2F)c(-n2cc([N+](=O)[O-])cn2)cc(Cl)c1=O [Compound 161] | L (L shows the control value of 50% or less) | H (H shows the control value more than 50%) |
| CCn1c(-c2c(F)cccc2F)c(-c2ncc(OC)o2)cc(Cl)c1=O [Compound 162] | L (L shows the control value of 50% or less) | L (L shows the control value of 50% or less) |
| CCn1c(-c2c(F)cc(F)cc2F)c(-n2cc(NC(C)=O)cn2)cc(Cl)c1=O [Compound 163] | L (L shows the control value of 50% or less) | L (L shows the control value of 50% or less) |
| CCn1c(-c2ccc(F)cc2Br)c(-n2cc(Cl)cn2)ccc1=O [Compound 164] | L (L shows the control value of 50% or less) | H (H shows the control value more than 50%) |
| CCn1c(-c2ccc(F)cc2Br)c(-n2cc(Cl)cn2)cc(Cl)c1=O [Compound 165] | L (L shows the control value of 50% or less) | H (H shows the control value more than 50%) |
| CCn1c(-c2ccc(F)cc2Br)c(-n2cc(Cl)cn2)cc(Br)c1=O [Compound 166] | L (L shows the control value of 50% or less) | H (H shows the control value more than 50%) |
| CCn1c(-c2ccc(OC)cc2Br)c(-n2cc(Cl)cn2)cc(Cl)c1=O [Compound 167] | L (L shows the control value of 50% or less) | H (H shows the control value more than 50%) |
| CCn1c(-c2ccc(F)cc2C)c(-n2cc(Cl)cn2)ccc1=O [Compound 168] | L (L shows the control value of 50% or less) | H (H shows the control value more than 50%) |
| CCn1c(-c2ccccc2Cl)c(-n2cc(Cl)cn2)ccc1=O [Compound 169] | L (L shows the control value of 50% or less) | L (L shows the control value of 50% or less) |
| CCn1c(-c2ccc(F)cc2C)c(-n2cc(Cl)cn2)cc(Cl)c1=O [Compound 170] | L (L shows the control value of 50% or less) | H (H shows the control value more than 50%) |
| CCn1c(-c2ccc(F)cc2C)c(-n2cc(Cl)cn2)cc(Br)c1=O [Compound 171] | L (L shows the control value of 50% or less) | H (H shows the control value more than 50%) |
